Experimental data from article PMC9120031.
Substitutions are numbered along the chain they refer to. Names may count otherwise. Results are given in words; binding and its absence hold for the method and conditions named. In cells and extracts the contact can be indirect. Some binding calls cover weakened binding; strength is not graded here. Sequences can lack the tags named with a protein.

Amino acid sequences for entries named in this document (tags omitted). A change or cut given only in a name is not applied to a line headed by its entry.
UniProt P51150: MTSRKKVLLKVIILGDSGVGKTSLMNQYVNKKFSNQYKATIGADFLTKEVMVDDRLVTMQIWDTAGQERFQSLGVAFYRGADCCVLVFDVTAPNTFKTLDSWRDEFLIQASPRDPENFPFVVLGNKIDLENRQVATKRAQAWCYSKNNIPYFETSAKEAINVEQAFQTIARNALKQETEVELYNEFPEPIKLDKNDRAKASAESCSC

T1: FLAG-a3N deletion mutant 214-386 (UniProt Q9JHF5)
T1 sequence: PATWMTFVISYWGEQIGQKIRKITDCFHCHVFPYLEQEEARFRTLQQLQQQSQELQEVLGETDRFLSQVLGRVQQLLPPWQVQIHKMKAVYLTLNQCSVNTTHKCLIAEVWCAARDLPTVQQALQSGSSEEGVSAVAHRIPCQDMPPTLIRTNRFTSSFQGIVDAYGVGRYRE

T2: FLAG-Ccz1 mutant of segment 1-180 (mouse) (UniProt Q8C1Y8)
T2 sequence: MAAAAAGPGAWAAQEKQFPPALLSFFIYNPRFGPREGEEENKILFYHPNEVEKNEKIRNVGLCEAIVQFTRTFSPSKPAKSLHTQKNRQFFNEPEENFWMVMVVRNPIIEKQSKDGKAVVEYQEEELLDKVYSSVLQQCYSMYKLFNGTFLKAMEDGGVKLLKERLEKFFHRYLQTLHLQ

T3: FLAG-Ccz1 mutant of segment 1-250 (mouse) (UniProt Q8C1Y8)
T3 sequence: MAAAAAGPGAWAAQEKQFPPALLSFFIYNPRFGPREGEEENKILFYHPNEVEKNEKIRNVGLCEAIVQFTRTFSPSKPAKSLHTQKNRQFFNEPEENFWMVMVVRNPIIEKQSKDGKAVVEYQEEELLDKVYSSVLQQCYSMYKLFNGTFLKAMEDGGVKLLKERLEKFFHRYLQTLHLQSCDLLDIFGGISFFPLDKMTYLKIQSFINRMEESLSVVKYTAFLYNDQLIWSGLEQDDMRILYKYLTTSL

T4: Ccz1 deletion mutant 38-250 used for heterodimer formation in Supplementary Fig. S2 (mouse) (UniProt Q8C1Y8)
T4 sequence: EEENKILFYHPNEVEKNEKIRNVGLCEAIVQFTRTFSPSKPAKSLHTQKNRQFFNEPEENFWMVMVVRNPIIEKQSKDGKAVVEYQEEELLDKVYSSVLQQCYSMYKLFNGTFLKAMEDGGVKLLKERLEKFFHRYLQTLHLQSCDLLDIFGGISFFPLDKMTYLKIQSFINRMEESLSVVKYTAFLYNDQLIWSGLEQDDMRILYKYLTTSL

T5: Ccz1 used as partner of the Mon1A deletion mutants in Supplementary Fig. S2 (mouse) (UniProt Q8C1Y8)
T5 sequence: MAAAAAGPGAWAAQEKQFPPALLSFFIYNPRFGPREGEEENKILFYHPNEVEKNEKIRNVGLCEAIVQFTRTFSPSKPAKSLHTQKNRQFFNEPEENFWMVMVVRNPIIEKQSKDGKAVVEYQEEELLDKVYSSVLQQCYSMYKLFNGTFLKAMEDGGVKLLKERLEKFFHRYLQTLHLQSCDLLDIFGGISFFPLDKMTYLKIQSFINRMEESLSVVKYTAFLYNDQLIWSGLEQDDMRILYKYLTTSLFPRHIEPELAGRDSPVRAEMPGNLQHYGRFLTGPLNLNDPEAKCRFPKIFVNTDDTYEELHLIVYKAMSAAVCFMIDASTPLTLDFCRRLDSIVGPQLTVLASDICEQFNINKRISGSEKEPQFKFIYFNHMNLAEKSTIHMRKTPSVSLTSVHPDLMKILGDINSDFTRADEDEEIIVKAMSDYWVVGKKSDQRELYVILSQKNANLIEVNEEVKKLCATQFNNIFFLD

B1: V5-tagged Mon1A (protein, UniProt Q6PDG8 1-556)
chain: MAADMQRKRSSECPEGTLAPSNGQSVERAESPTPGLTQGTEPGAGQEGAMFVHTRSYEDLTELEDREASGDSPKECVGSPPPLATDMRQISQDFSELSTQLTGVARDLQEEMLPGSSEDWPEPQGAAGRGAATEPSQEGSTEGEEEDATEAWRLHQKHVFVLSEAGKPVYSRYGSEEALSSTMGVMVALVSFLEADKNAIRSIHADGYKVVFVRRSPLVLVAVARTRQSAQELAQELLYIYYQILSLLTGAQLSHIFQQKQNYDLRRLLSGSERITDNLLQLMARDPSFLMGAARCLPLAAAVRDTVSASLQQARARSLVFSILLAHNQLVALVRRKDQFLHPIDLHLLFNLISSSSSFREGEAWTPVCLPKFNAAGFFHAHISYLEPDTDLCLLLISTDREDFFAVSDCRRRFQERLRKRGTHLALREALRTPYYSVAQVGIPDLRHFLYKSKSSGLFTSPEIEAPYSSEEEQERLLGLYQYLHSRAHNASRPLKTIYYTGPNENLLAWVTGAFELYMCYSPLGTKASAVSAIHKLMRWIRKEEDRLFILTPLTY
B2: V5-tagged Ccz1 (protein, UniProt Q8C1Y8 1-480)
chain: T5 sequence
B3: V5-Mon1A deletion mutant 1-246 (domain or fragment, UniProt Q6PDG8 1-246)
chain: MAADMQRKRSSECPEGTLAPSNGQSVERAESPTPGLTQGTEPGAGQEGAMFVHTRSYEDLTELEDREASGDSPKECVGSPPPLATDMRQISQDFSELSTQLTGVARDLQEEMLPGSSEDWPEPQGAAGRGAATEPSQEGSTEGEEEDATEAWRLHQKHVFVLSEAGKPVYSRYGSEEALSSTMGVMVALVSFLEADKNAIRSIHADGYKVVFVRRSPLVLVAVARTRQSAQELAQELLYIYYQILS
B4: V5-Mon1A G166P/K167D (PD) mutant (protein, UniProt Q6PDG8 1-556)
chain: B1 chain with G166P, K167D
B5: V5-Mon1A N262W/D264A/R266A (WAA) mutant (protein, UniProt Q6PDG8 1-556)
chain: B1 chain with N262W, D264A, R266A

Experiments:
[1] = molecular target: T1, FLAG-a3N deletion mutant 214-386; test: co-IP; FLAG- and V5-tagged proteins co-expressed in HEK293T cells; lysed 48 h after transfection in IP buffer (1% Triton X-100, 10% glycerol, 50 mM Tris-HCl pH 7.4, 150 mM NaCl, 1 mM dithiothreitol, 1 mM EDTA); precipitated with anti-FLAG antibody; western blot with anti-V5 (or anti-A subunit) antibody
[2] = molecular target: T2, FLAG-Ccz1 mutant of segment 1-180 (mouse); test: as above
[3] = molecular target: T3, FLAG-Ccz1 mutant of segment 1-250 (mouse); test: as above
[4] = molecular target: FLAG-tagged GDP-fixed Rab7(T22N) (UniProt P51150); test: as above
[5] = molecular target: FLAG-tagged a3C (carboxy-terminal half of a3, amino acids 387-834) (UniProt Q9JHF5); test: as above
[6] = molecular target: T4, Ccz1 deletion mutant 38-250 used for heterodimer formation in Supplementary Fig. S2 (mouse); test: co-IP; Supplementary Fig. S2: heterodimer formation of Mon1A and Ccz1 deletion mutants; co-precipitated V5-Mon1A signals compared with 5% input; set-up not told in the text shown
[7] = molecular target: T5, Ccz1 used as partner of the Mon1A deletion mutants in Supplementary Fig. S2 (mouse); test: as above

Row | Binder | binding [1] | binding [4] | binding [5] | other results
1 | B1 | binds | binds | no binding | binding [2]: binds; binding [3]: binds; binding [6]: binds
2 | B2 | binds |  | no binding | 
3 | B3 |  |  |  | binding [7]: binds
4 | B4 |  | binds |  | 
5 | B5 |  | binds |  | 
